Article PMC5062570 (Nature Communications, 2016)
Several values for one entry are separate records, joined by “and”; a condition that tells them apart may be missing. Equal entries are not always repeated.

Experiments:
[1] = target: PF-7802-labelled proteins in ARPE-19 cells (Homo sapiens, UniProt P17096); conditions: protein HMGA1 High mobility group protein HMG-I/HMG-Y (P17096); one column per replicate
[2] = target: PF-7802-labelled proteins in ARPE-19 cells (Homo sapiens, UniProt P23634)
[3] = target: PF-7802-labelled proteins in ARPE-19 cells (Homo sapiens, UniProt P61019); conditions: protein RAB2A Ras-related protein Rab-2A, P61019
UniProt P61019, sequence (P61019 whole entry): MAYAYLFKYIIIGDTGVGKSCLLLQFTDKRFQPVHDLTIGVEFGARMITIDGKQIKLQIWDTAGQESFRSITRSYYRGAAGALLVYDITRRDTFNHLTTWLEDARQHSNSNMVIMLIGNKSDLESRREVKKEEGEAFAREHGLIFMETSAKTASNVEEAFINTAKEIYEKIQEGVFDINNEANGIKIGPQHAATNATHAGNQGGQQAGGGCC

[4] = target: PF-7802-labelled proteins in ARPE-19 cells (Homo sapiens, UniProt P38646)
[5] = target: PF-7802-labelled proteins in ARPE-19 cells (Homo sapiens, UniProt P23396); conditions: protein RPS3 40S ribosomal protein S3, P23396
[6] = target: PF-7802-labelled proteins in ARPE-19 cells (Homo sapiens, UniProt Q96QV6); conditions: Q96QV6 HIST1H2AA Histone H2A type 1-A
[7] = target: PF-7802-labelled proteins in ARPE-19 cells (Homo sapiens, UniProt P07951); conditions: TPM2 Tropomyosin beta chain (P07951)
UniProt P07951, sequence (P07951 whole entry): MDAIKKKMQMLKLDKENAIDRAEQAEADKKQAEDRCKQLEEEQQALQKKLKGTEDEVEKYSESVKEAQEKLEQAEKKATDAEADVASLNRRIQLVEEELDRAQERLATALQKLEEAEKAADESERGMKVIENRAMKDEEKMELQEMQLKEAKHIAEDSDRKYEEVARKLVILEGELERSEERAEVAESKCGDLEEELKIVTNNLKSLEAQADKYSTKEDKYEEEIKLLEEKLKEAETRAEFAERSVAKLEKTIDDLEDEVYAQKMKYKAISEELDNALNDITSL

[8] = target: PF-7802-labelled proteins in ARPE-19 cells (Homo sapiens, UniProt Q02878)
[9] = target: PF-7802-labelled proteins in ARPE-19 cells (Homo sapiens, UniProt P25705)
[10] = target: PF-7802-labelled proteins in ARPE-19 cells (Homo sapiens, UniProt Q71UI9); conditions: Q71UI9 H2AFV Histone H2A.V
UniProt Q71UI9, sequence (Q71UI9 whole entry): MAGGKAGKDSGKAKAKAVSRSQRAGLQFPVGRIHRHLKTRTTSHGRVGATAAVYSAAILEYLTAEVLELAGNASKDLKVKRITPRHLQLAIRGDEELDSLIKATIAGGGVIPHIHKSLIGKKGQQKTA

[11] = target: PF-7802-labelled proteins in ARPE-19 cells (Homo sapiens, UniProt O14950); conditions: protein MYL12B Myosin regulatory light chain 12B (O14950); replicates in separate columns
UniProt O14950, sequence (O14950 whole entry): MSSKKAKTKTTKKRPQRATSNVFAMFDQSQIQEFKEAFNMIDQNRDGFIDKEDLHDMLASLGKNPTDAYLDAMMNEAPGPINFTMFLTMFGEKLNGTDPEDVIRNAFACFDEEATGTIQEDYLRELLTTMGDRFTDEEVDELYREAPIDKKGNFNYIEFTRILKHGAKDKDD

[12] = target: PF-7802-labelled proteins in ARPE-19 cells (Homo sapiens, UniProt Q16527); conditions: protein CSRP2 Cysteine and glycine-rich protein 2 (Q16527)
UniProt Q16527, sequence (Q16527 whole entry): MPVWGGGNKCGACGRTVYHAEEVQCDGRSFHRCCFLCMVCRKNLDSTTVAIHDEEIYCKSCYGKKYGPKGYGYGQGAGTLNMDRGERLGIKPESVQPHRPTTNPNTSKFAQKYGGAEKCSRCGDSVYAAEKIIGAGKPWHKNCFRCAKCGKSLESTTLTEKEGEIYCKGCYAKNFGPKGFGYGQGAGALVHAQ

[13] = target: PF-7802-labelled proteins in ARPE-19 cells (Homo sapiens, UniProt Q8IZL8); conditions: protein PELP1 Proline-, glutamic acid- and leucine-rich protein 1 (Q8IZL8); replicates in separate columns
UniProt Q8IZL8, sequence (Q8IZL8 whole entry): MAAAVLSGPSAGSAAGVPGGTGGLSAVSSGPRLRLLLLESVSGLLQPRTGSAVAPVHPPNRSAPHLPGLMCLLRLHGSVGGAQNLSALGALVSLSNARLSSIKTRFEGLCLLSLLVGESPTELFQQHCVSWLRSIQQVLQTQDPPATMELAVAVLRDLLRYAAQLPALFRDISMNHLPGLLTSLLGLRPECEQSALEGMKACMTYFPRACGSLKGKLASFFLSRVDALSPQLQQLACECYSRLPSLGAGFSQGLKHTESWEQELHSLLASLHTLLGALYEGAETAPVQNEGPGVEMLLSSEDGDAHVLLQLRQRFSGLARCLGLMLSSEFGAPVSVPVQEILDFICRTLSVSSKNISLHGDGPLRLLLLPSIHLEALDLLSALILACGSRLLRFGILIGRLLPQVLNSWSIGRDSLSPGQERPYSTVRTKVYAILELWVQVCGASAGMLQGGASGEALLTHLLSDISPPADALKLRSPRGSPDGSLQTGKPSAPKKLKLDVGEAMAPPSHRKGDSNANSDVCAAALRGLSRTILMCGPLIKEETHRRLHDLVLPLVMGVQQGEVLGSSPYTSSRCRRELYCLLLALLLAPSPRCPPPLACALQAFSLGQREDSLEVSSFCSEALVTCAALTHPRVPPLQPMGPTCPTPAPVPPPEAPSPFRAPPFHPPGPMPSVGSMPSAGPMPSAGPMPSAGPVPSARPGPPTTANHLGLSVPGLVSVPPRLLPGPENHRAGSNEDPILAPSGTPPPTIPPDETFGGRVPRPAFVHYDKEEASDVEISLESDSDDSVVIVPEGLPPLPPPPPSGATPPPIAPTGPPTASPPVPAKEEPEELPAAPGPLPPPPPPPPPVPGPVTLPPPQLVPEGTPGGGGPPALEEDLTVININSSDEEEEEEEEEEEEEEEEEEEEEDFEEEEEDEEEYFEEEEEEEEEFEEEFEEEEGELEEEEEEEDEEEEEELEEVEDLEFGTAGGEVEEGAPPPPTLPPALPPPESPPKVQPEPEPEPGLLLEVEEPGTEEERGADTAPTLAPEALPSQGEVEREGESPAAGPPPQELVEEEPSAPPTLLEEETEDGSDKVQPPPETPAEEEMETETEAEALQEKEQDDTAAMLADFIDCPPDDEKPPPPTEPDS

[14] = target: PF-7802-labelled proteins in ARPE-19 cells (Homo sapiens, UniProt P84077); conditions: protein ARF1 ADP-ribosylation factor 1 (P84077)
UniProt P84077, sequence (P84077 whole entry, the tested form may be a part): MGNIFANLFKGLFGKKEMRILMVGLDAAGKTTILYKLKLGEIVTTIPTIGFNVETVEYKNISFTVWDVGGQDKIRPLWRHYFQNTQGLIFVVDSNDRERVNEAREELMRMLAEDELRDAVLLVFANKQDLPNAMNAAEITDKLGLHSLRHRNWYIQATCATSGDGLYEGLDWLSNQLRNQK

[15] = target: PF-7802-labelled proteins in ARPE-19 cells (Homo sapiens, UniProt P49755); conditions: TMED10 Transmembrane emp24 domain-containing protein 10 (P49755)
[16] = target: PF-7802-labelled proteins in ARPE-19 cells (Homo sapiens, UniProt Q12905); conditions: […]; one column per replicate
UniProt Q12905, sequence (Q12905 whole entry): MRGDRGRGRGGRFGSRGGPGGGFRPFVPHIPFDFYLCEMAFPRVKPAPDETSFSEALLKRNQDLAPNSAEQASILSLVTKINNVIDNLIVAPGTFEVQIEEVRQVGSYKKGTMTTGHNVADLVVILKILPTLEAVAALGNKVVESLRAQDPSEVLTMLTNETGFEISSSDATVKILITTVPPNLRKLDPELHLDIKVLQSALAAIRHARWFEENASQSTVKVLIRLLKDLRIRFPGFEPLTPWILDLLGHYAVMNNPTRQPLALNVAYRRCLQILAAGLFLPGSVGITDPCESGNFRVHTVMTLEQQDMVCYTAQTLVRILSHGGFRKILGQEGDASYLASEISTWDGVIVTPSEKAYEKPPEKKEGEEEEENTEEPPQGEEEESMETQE

UniProt P23634, sequence (P23634 whole entry): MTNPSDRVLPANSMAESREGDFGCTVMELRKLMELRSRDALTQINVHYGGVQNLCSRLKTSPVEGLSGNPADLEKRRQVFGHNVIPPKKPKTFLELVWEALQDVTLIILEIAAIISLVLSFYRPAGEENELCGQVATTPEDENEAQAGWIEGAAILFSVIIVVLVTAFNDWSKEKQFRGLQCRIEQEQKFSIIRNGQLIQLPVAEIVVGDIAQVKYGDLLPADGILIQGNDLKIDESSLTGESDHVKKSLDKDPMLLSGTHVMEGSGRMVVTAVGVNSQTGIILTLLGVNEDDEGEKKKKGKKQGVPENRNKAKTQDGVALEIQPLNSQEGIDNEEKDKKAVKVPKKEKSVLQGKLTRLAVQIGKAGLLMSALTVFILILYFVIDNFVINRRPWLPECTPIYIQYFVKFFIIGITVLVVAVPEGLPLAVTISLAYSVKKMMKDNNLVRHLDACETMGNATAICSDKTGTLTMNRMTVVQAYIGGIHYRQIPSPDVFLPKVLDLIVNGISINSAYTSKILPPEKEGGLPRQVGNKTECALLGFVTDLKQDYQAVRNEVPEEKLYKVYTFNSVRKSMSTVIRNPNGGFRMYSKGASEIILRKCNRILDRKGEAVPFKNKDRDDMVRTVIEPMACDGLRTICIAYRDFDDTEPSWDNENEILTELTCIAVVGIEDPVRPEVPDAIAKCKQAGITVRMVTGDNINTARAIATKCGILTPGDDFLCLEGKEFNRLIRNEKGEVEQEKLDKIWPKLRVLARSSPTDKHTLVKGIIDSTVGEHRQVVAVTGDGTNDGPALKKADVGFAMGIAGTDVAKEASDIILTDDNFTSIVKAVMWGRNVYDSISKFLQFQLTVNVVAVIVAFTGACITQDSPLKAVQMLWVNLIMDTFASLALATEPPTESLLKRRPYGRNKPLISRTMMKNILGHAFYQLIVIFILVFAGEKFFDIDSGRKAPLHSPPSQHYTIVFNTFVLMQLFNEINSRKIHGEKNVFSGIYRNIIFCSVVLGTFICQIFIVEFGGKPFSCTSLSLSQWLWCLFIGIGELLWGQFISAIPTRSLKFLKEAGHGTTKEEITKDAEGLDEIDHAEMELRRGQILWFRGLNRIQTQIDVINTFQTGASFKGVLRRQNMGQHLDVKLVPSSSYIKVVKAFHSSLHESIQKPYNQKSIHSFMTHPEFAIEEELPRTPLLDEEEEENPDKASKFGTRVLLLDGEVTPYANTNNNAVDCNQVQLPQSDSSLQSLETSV
UniProt P17096, sequence (P17096 whole entry): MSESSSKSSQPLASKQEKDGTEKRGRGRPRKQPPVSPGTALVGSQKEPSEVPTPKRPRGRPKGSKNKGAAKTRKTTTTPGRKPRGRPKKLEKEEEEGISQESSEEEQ

| Compound | Median SILAC Ratio (Heavy/Light) [1] | SILAC ratio (DMSO/CP-108671) ([2]; P23634 ATP2B4 Plasma membrane calcium-transporting ATPase 4) | Median SILAC Ratio (Heavy/Light) ([2]; protein ATP2B4 Plasma membrane calcium-transporting ATPase 4 (P23634)) | Median SILAC Ratio (Heavy/Light) [3] | SILAC ratio (DMSO/CP-108671) ([4]; P38646 HSPA9 Stress-70 protein, mitochondrial) | Median SILAC Ratio (Heavy/Light) ([4]; protein HSPA9 Stress-70 protein, mitochondrial (P38646), one column per replicate) | Median SILAC Ratio (Heavy/Light) [5] | SILAC ratio (DMSO/CP-108671) [6] | Median SILAC Ratio (Heavy/Light) [7] | SILAC ratio (DMSO/CP-108671) ([8]; Q02878 RPL6 60S ribosomal protein L6) | Median SILAC Ratio (Heavy/Light) ([8]; protein RPL6 60S ribosomal protein L6, Q02878) | SILAC ratio (DMSO/CP-108671) ([9]; P25705 ATP5A1 ATP synthase subunit alpha, mitochondrial) | Median SILAC Ratio (Heavy/Light) ([9]; protein ATP5A1 ATP synthase subunit alpha, mitochondrial (P25705)) | SILAC ratio (DMSO/CP-108671) [10] | Median SILAC Ratio (Heavy/Light) [11] | Median SILAC Ratio (Heavy/Light) [12] | Median SILAC Ratio (Heavy/Light) [13] | Median SILAC Ratio (Heavy/Light) [14] | Median SILAC Ratio (Heavy/Light) [15] | Median SILAC Ratio (Heavy/Light) [16] |
| --- | --- | --- | --- | --- | --- | --- | --- | --- | --- | --- | --- | --- | --- | --- | --- | --- | --- | --- | --- | --- |
| CNC1CCN(C(=O)C[C@@H](Cc2ccccc2)C(=O)N[C@@H](CSC)C(=O)N[C@@H](CC2CCCCC2)[C@@H](O)C(=O)OC(C)C)CC1 [CP-108671, reference compound] | 1.132 | 0.75 | 1.341 | 1.435 | 0.91 | 1.105 | 6.367 | 0.94 | 1.679 | 0.69 | 1.46 | 0.91 | 1.108 and 0.8571 | 0.98 | 1.915 |  |  |  |  |  |
| Cc1cc([C@H]2C[C@H]3[C@@H](C)SC(N)=N[C@@]3(c3ccc(F)cc3F)CO2)on1 [PF-9283] |  |  |  |  |  |  |  |  |  |  |  |  |  |  |  | 1.668 | 1.084 | 0.6905 and 0.7654 | 1.189 | 1.336 |
